{
  "source": "PubChem BioAssay AID1466",
  "about": "(National Center for Advancing Translational Sciences (NCATS), 2008)",
  "note": "The whole screen tested about 200,000 compounds, of which about 10 (0.005%) were called active. This list was built around the results that the source calls inconclusive (neither active nor inactive); the mix of calls is not that of the screen. Calls come from the whole dose curve; as a rule, active = well fitted inhibition curve with a large enough effect; inconclusive = small, poorly fitted or top-dose-only effect, or effect the other way, or another doubt; inactive = no such curve, though single readings can be large or run the other way. No potency is given beside an inconclusive call; the fits are too rough. Potency is the fitted concentration of half-maximal effect; tags give direction and shape of the fitted curve.",
  "data": [
    {"molecular_target": "Lysosomal alpha-glucosidase (Homo sapiens) (UniProt P10253)", "assay": "qHTS Assay for Inhibitors of Human alpha-Glucosidase as a Potential Chaperone Treatment of Pompe Disease;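 for activity change, negative = inhibition: plate controls were uninhibited enzyme wells for no effect and no-enzyme background for full effect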", "conditions": "purified human GAA, 4-MU-alpha-glucoside fluorescence; activity change, negative = inhibition: at 76.9 µM (top of the series) unless noted", "how_it_was_run": "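qHTS format, compound range up to 77 uM. Human lysosomal enzyme at 4 nM, 400 uM 4-MU glucoside substrate, pH 5.0, 20 min room temperature; fluorescence after alkaline stop gives activity normalized to controls.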", "values": [
      {"smiles": "CNC(=O)CN1C(=O)c2cccc3cccc1c23", "activity change, negative = inhibition": "inactive: -1.43%"},
      {"smiles": "O=[N+]([O-])c1ccc(-c2ccc(/C=N/Nc3nc(N4CCCC4)nc(N4CCCC4)n3)o2)cc1", "Potency": "inconclusive [inhibitor, single point]"},
      {"smiles": "CCn1c(SC)nnc1-c1sc2cc(Cl)ccc2c1Cl", "Potency": "inconclusive [inhibitor, single point]"},
      {"smiles": "COc1ccc(C(C)=O)cc1COc1ccc(Cl)c(C)c1", "Potency": "inconclusive [inhibitor, partial curve]"},
      {"smiles": "CC1CCCCN1C(=O)CSc1nc2ccccc2n1CC(=O)N1CCc2ccccc21", "note": "(centres undefined)", "activity change, negative = inhibition": "inconclusive: 12.8% [activator]"},
      {"smiles": "NNC(=O)CN1C(CN2CCOCC2)=Nc2ccc(Br)cc2C1c1ccccc1", "note": "(centres undefined)", "activity change, negative = inhibition": "inconclusive: 9.71% [activator]"},
      {"smiles": "CCN(CC)CCOc1ccc2c(c1)C(=NNC(=O)c1ccccn1)c1cc(OCCN(CC)CC)ccc1-2", "Potency": "inconclusive [inhibitor, partial curve]"},
      {"smiles": "Cc1ccccc1NC(=O)CC1SC(=O)N(c2ccccc2)C1=O", "note": "(centres undefined)", "activity change, negative = inhibition": "inactive: -10.4%"},
      {"smiles": "COc1ccc(NS(=O)(=O)c2cc(NC(=O)/C=C/c3cccs3)ccc2N2CCOCC2)cc1", "Potency": "inconclusive [inhibitor, single point]"},
      {"smiles": "COc1cccc(OC)c1C(=O)NC(=S)NCc1ccccc1", "Potency": "inconclusive [inhibitor, full curve]"},
      {"smiles": "Cc1ccc(S(=O)(=O)N2CCOCC2)cc1NC(=O)COC(=O)CNC(=O)c1ccc(C(C)(C)C)cc1", "Potency": "inconclusive [inhibitor, single point]"},
      {"smiles": "Cc1ccc(S(=O)(=O)c2c(C)cc(-c3ccccc3)[nH]c2=O)cc1", "Potency": "inconclusive [activator, single point]"},
      {"smiles": "CCOC(=O)C(=CNc1ccccc1C)C(=O)OCC", "Potency": "inconclusive [inhibitor, single point]"},
      {"smiles": "CCOC(=O)N1CCC(NC(=O)Cn2cccc2C(=O)c2ccccc2)CC1", "activity change, negative = inhibition": "inconclusive: -15.1% [inhibitor]"},
      {"smiles": "CCOC(=O)C1(Cc2ccccc2C(F)(F)F)CCN(C2CCN(C(C)=O)CC2)CC1", "Potency": "inconclusive [inhibitor, single point]"},
      {"smiles": "CC(Cc1cccs1)NC(=S)Nc1ccccc1", "note": "(centres undefined)", "Potency": "inconclusive [inhibitor, single point]"},
      {"smiles": "O=C(CCN1C(=O)C2C3C=CC(C3)C2C1=O)Nc1c(F)cc(F)cc1Br", "note": "(centres undefined)", "activity change, negative = inhibition": "inconclusive: -16.6% [inhibitor]"},
      {"smiles": "CN(C)/C=C/C(=O)c1ccc(Cl)s1", "Potency": "inconclusive [inhibitor, single point]"},
      {"smiles": "CCCC(=O)NC(c1ccc(N(C)C)cc1)c1c(O)ccc2ccccc12", "note": "(centres undefined)", "Potency": "inconclusive [inhibitor, single point]"},
      {"smiles": "COc1cc(CNc2ccc(N3CCOCC3)cc2)cc(Br)c1OC", "activity change, negative = inhibition": "inactive: 2.96%"},
      {"smiles": "CC(=O)Nc1ccc(N(C(=O)CNC(=O)c2ccco2)C(C(=O)NCc2ccco2)c2ccccc2F)cc1", "note": "(centres undefined)", "activity change, negative = inhibition": "inconclusive: 16% [activator]"},
      {"smiles": "CCOC(=O)Cc1cnc(NC(=O)Cn2nnc(-c3ccc(OCC)cc3)n2)s1", "Potency": "inconclusive [inhibitor, single point]"},
      {"smiles": "CCOC(=O)C1=C(C)NC(=S)NC1C", "note": "(centres undefined)", "Potency": "inconclusive [activator, single point]"},
      {"smiles": "CCn1cc(C2C(C(=O)Nc3ccc(Br)cn3)=C(C)NC3=C2C(=O)CCC3)c(C)n1", "note": "(centres undefined)", "Potency": "inconclusive [activator, partial curve]"},
      {"smiles": "CCOC(=O)c1snc2c(=O)[nH]cnc12", "Potency": "inconclusive [activator, partial curve]"},
      {"smiles": "CCOC(=O)c1ccc(NC(=O)COc2ccc(S(=O)(=O)N3CCCC3)cc2)cc1", "Potency": "inconclusive [inhibitor, single point]"},
      {"smiles": "CCOC(=O)c1c(C)n(C)c2ccc(OCC(O)CN3CCC(C)CC3)cc12", "note": "(centres undefined)", "Potency": "inconclusive [inhibitor, single point]"},
      {"smiles": "Cc1ccc2nc(-c3ccc(S(=O)(=O)N4CCCCC4)cc3)cn2c1", "Potency": "inconclusive [inhibitor, single point]"},
      {"smiles": "CN(CC(=O)NC1CCCc2ccccc21)S(=O)(=O)c1ccc2c(c1)c(=O)n(C)c(=O)n2C", "note": "(centres undefined)", "activity change, negative = inhibition": "inactive: 0.739%"},
      {"smiles": "Cc1ccc(C)c(NC2=NS(=O)(=O)c3ccccc32)c1", "Potency": "inconclusive [inhibitor, single point]"},
      {"smiles": "COCCCNC(=O)CCc1nc2cccnc2n1Cc1ccccc1", "Potency": "inconclusive [inhibitor, partial curve, poor fit]"},
      {"smiles": "N#CCSc1n[nH]c2nc3c(c(=O)n12)C1(CCCC1)Cc1ccccc1-3", "Potency": "inconclusive [activator, single point]"},
      {"smiles": "Cc1cccc(N2CCN(C(=S)Nc3ccc4nc(N5CCOCC5)cc(C)c4c3)CC2C)c1", "note": "(centres undefined)", "activity change, negative = inhibition": "inconclusive: 19.3% [activator]"},
      {"smiles": "CC1CN(S(=O)(=O)c2ccc(NC(=O)CCCN3C(=O)c4ccccc4C3=O)cc2)CC(C)O1", "note": "(centres undefined)", "Potency": "inconclusive [inhibitor, single point]"},
      {"smiles": "COc1ccc(N2C(=O)c3ccccc3NC2(C)C)cc1", "Potency": "inconclusive [activator, single point]"},
      {"smiles": "CSc1nccc(N2CCN(c3ccc(F)cc3)CC2)n1", "Potency": "inconclusive [inhibitor, full curve]"},
      {"smiles": "Cc1ccc(-c2noc(CSc3nnc(Cc4ccccc4)n3-c3ccc(Cl)cc3)n2)cc1", "Potency": "inconclusive [inhibitor, single point]"},
      {"smiles": "Cc1ccc(S(=O)(=O)N2CCN(CC(=O)N/N=C/c3ccc(C)o3)CC2)cc1", "Potency": "inconclusive [inhibitor, single point]"},
      {"smiles": "O=C(Nc1ccccc1C(=O)N1CCCCCC1)c1ccc(Cl)cc1", "Potency": "inconclusive [inhibitor, single point]"},
      {"smiles": "O=C1c2ccccc2CC1Sc1nnc(-c2ccncc2)o1", "note": "(centres undefined)", "Potency": "inconclusive [inhibitor, single point]"},
      {"smiles": "COc1ccc(CCC(=O)Nc2ccccc2C(F)(F)F)cc1", "Potency": "inconclusive [inhibitor, full curve, poor fit]"},
      {"smiles": "COc1cc(/C=N\\NC(=O)c2ccc(Cn3cc(Br)c([N+](=O)[O-])n3)o2)cc(OC)c1O", "Potency": "inconclusive [inhibitor, single point]"},
      {"smiles": "O=C(Cc1ccccc1[N+](=O)[O-])NCCSCc1c(F)cccc1Cl", "activity change, negative = inhibition": "inconclusive: -17.4% [inhibitor]"},
      {"smiles": "Cc1onc(-c2ccccc2)c1C(=O)N/N=C/c1cn(C)c2ccccc12", "Potency": "inconclusive [inhibitor, single point]"},
      {"smiles": "CC1Cn2c(nnc2-c2ccc(F)cc2)S1", "note": "(centres undefined)", "Potency": "inconclusive [inhibitor, full curve]"},
      {"smiles": "COc1cc(CN2CCN(S(=O)(=O)c3ccc(NC(C)=O)cc3)CC2)cc(OC)c1O", "Potency": "inconclusive [inhibitor, partial curve]"},
      {"smiles": "O=C1c2ccccc2C(=O)N1CCCc1nc2ccccc2c(=O)n1-c1cccnc1", "Potency": "inconclusive [inhibitor, partial curve, poor fit]"},
      {"smiles": "O=C1NC(c2cc(Cl)cc([N+](=O)[O-])c2O)Nc2ccccc21", "note": "(centres undefined)", "Potency": "inconclusive [inhibitor, partial curve, poor fit]"},
      {"smiles": "Cc1cc2nc(CCl)cc(=O)n2[nH]1", "activity change, negative = inhibition": "inactive: -1.41%"},
      {"smiles": "NC1=NC(=Nc2ccc(Br)cc2)c2ccccc21", "Potency": "inconclusive [inhibitor, single point]"},
      {"smiles": "CCOC(=O)N1CCc2c(sc3c2C(=O)NC(c2ccccc2)N3)C1", "note": "(centres undefined)", "Potency": "inconclusive [activator, single point]"},
      {"smiles": "CCN1CCc2c(sc3c2c(NCc2ccco2)nc2nnnn23)C1", "Potency": "inconclusive [activator, partial curve]"},
      {"smiles": "Cc1ccc(CN2CC(C(=O)Nc3cccc(S(=O)(=O)N4CCCCC4)c3)CC2=O)cc1", "note": "(centres undefined)", "Potency": "inconclusive [inhibitor, single point]"},
      {"smiles": "CCOc1ccccc1NC(=O)NCCC1=CCCCC1", "activity change, negative = inhibition": "inconclusive: 13.7% [activator]"},
      {"smiles": "N#Cc1ccccc1NC(=O)Nc1ccccc1", "Potency": "inconclusive [activator, partial curve, poor fit]"},
      {"smiles": "O=C(O)Cn1c(COc2ccc(Cl)cc2)nc2ccccc21", "activity change, negative = inhibition": "inconclusive: -16.1% [inhibitor]"},
      {"smiles": "CS(=O)(=O)N1CCN(c2ccc(NC(=O)c3ccc([N+](=O)[O-])o3)cc2)CC1", "Potency": "inconclusive [inhibitor, single point]"},
      {"smiles": "N#Cc1nc(-c2cccs2)oc1NCc1ccccc1Cl", "Potency": "inconclusive [activator, single point]"},
      {"smiles": "CCCn1c(NC(=O)c2ccc(Cl)c(S(=O)(=O)N3CCCC3)c2)nc2ccccc21", "activity change, negative = inhibition": "inconclusive: -17.4% [inhibitor]"},
      {"smiles": "Cc1cc(C(=O)N2CCOCC2)ccc1[N+](=O)[O-]", "activity change, negative = inhibition": "inconclusive: 15.1% [activator]"},
      {"smiles": "COc1ccc(Cn2cnc3c(NS(C)(=O)=O)c(C)c(C)cc32)cc1", "Potency": "inconclusive [inhibitor, partial curve, poor fit]"},
      {"smiles": "COc1ccc(S(=O)(=O)N2CCN(C(=O)COc3ccc4c(C)cc(=O)oc4c3)CC2)cc1", "Potency": "inconclusive [inhibitor, partial curve]"},
      {"smiles": "CC(C)(C)c1ccc(S(=O)(=O)N2CCCCC2)cc1", "Potency": "inconclusive [inhibitor, single point]"},
      {"smiles": "Cc1ccc(OCc2nnc(SCc3ccc(C#N)cc3)n2-c2ccc(C)cc2)cc1", "Potency": "inconclusive [inhibitor, partial curve, poor fit]"}
    ]}
  ]
}
